{"source": "the supplement of paper PMC11348887", "note": "“And” between values parts separate entries of the source, which are not always exact repeats. Equal values may be shown once. Where a name gives a salt, the structure may show the parent alone. The list shows a part of the results. Rule as the data show it: active = -2 or less and inactive = the rest. Single values are uncertain, as repeats are few or missing.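 Also: nuclei counted from DAPI counterstain by automated high-content image analysis, four fields per well at ×20 in 384-well plates, with sequential b-score then z-score normalization.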", "data": [{"system": "hPSC-derived cortical neurons (WA09)", "experiment": "nuclei number (viability) z-score; higher = more surviving cells", "conditions": "5 µM; treatment: days 7-14 after plating, readout day 21", "values": [{"smiles": "CCC[C@H](N[C@H]1CCc2cc(F)cc(F)c2C1)C(=O)Nc1cn(C(C)(C)CNCC(C)(C)C)cn1", "nuclei number (z-score)": "inactive: 0.415"}, {"smiles": "CN1C(=O)C(Cc2c[nH]c3ccccc23)NC1=S", "note": "(stereo not given) [Necrostatin-1]", "nuclei number (z-score)": "inactive: 0.249"}, {"smiles": "Cc1cc2c(s1)Nc1ccccc1N=C2N1CCN(C)CC1", "note": "[Olanzapine]", "nuclei number (z-score)": "inactive: -0.212"}, {"smiles": "CCn1c(-c2nonc2N)nc2c(C#CC(C)(C)O)ncc(OC[C@H]3CCCNC3)c21", "nuclei number (z-score)": "inactive: -1.22"}, {"smiles": "NC(=O)CC[C@H](N)C(=O)O", "note": "[L-Glutamine]", "nuclei number (z-score)": "inactive: 0.556"}, {"smiles": "CCN(CC)CCOc1ccc(Nc2ncc3cc(-c4c(Cl)cccc4Cl)c(=O)n(C)c3n2)cc1", "nuclei number (z-score)": "active: -3.32"}, {"smiles": "O=S(=O)(O)Oc1ccc(C(c2ccc(OS(=O)(=O)O)cc2)c2ccccn2)cc1", "note": "[Sodium Picosulfate]", "nuclei number (z-score)": "inactive: 0.439"}, {"smiles": "OCCOc1ccc(/C(=C(/CCCl)c2ccccc2)c2ccccc2)cc1", "note": "[Ospemifene]", "nuclei number (z-score)": "inactive: -0.274"}, {"smiles": "CC(C)OC(=O)C(C)(C)Oc1ccc(C(=O)c2ccc(Cl)cc2)cc1", "note": "[Fenofibrate]", "nuclei number (z-score)": "inactive: -0.189"}, {"smiles": "CNC(=O)c1ccc(Nc2ncc(C(F)(F)F)c(NCc3nccnc3N(C)S(C)(=O)=O)n2)cc1", "nuclei number (z-score)": "inactive: -0.895"}, {"smiles": "Cc1ccc(NC(=O)C2(c3ccc4c(c3)OC(F)(F)O4)CC2)nc1-c1cccc(C(=O)O)c1", "note": "[VX-809 (Lumacaftor)]", "nuclei number (z-score)": "inactive: 0.191"}, {"smiles": "Cn1cc(/C=C2\\C(=O)Nc3cccnc32)c2ccccc21", "nuclei number (z-score)": "inactive: -1.17"}, {"smiles": "CNC(=O)c1cc(Oc2ccc3nc(N[C@@H]4CCCC[C@H]4O)sc3c2)ccn1", "nuclei number (z-score)": "inactive: -0.275"}, {"smiles": "CC(C)(C)c1ccc(S(=O)(=O)/C=C/C#N)cc1", "nuclei number (z-score)": "inactive: -1.75"}, {"smiles": "CC(=O)c1c(C)c2cnc(Nc3ccc(N4CCNCC4)cn3)nc2n(C2CCCC2)c1=O", "nuclei number (z-score)": "inactive: -1.05 and inactive: -0.939"}, {"smiles": "CCN1C[C@H](C)n2c(c(O)c3c(=O)n(Cc4ccc(F)c(Cl)c4)nc(C(=O)NC)c32)C1=O", "nuclei number (z-score)": "inactive: 1.94"}, {"smiles": "CCCNC(=O)Nc1ccc(Oc2ncnc3cc(OC)c(OC)cc23)cc1Cl", "nuclei number (z-score)": "inactive: -0.339"}, {"smiles": "Cc1cc(O)cc(C)c1Cl", "note": "[Chloroxylenol]", "nuclei number (z-score)": "inactive: 0.112"}, {"smiles": "Cc1cn(-c2cc(NC(=O)c3ccc(C)c(Nc4nccc(-c5cccnc5)n4)c3)cc(C(F)(F)F)c2)cn1", "note": "[Nilotinib (AMN-107)]", "nuclei number (z-score)": "inactive: -0.237"}, {"smiles": "NC(=O)c1ccc(-c2nc(-c3ccccn3)c(-c3ccc4c(c3)OCO4)[nH]2)cc1", "nuclei number (z-score)": "inactive: 4.06"}, {"smiles": "C[C@@H](O[C@H]1OCCN(Cc2n[nH]c(=O)[nH]2)[C@H]1c1ccc(F)cc1)c1cc(C(F)(F)F)cc(C(F)(F)F)c1", "note": "[Aprepitant]", "nuclei number (z-score)": "inactive: -0.555"}, {"smiles": "Oc1cccc(O)c1", "note": "[Resorcinol]", "nuclei number (z-score)": "inactive: 0.393"}, {"smiles": "COc1ccc(C2=N[C@@H](c3ccc(Cl)cc3)[C@@H](c3ccc(Cl)cc3)N2C(=O)N2CCNC(=O)C2)c(OC(C)C)c1", "note": "[Nutlin-3a]", "nuclei number (z-score)": "active: -3.66"}, {"smiles": "COc1ccc(C2=N[C@@H](c3ccc(Cl)cc3)[C@@H](c3ccc(Cl)cc3)N2C(=O)N2CCNC(=O)C2)c(OC(C)C)c1", "note": "[Nutlin-3]", "nuclei number (z-score)": "inactive: -1.03"}, {"smiles": "CN/C(=N\\CCSCc1nc[nH]c1C)NC#N", "note": "[Cimetidine]", "nuclei number (z-score)": "inactive: -0.642"}, {"smiles": "c1ccc(C2CN3CCSC3=N2)cc1", "note": "(single isomer, unassigned; (-)) [(-)-Tetramisole]", "nuclei number (z-score)": "inactive: -0.53"}, {"smiles": "C/C(=C\\C(=O)OCCCCCCCCC(=O)O)C[C@@H]1OC[C@H](C[C@@H]2O[C@H]2[C@@H](C)[C@H](C)O)[C@@H](O)[C@H]1O", "note": "[Mupirocin]", "nuclei number (z-score)": "inactive: 1.06"}, {"smiles": "O=C(O)c1cc(/N=N/c2ccc(S(=O)(=O)Nc3ccccn3)cc2)ccc1O", "note": "[Sulfasalazine]", "nuclei number (z-score)": "inactive: 0.228"}, {"smiles": "NC(=O)c1ccc(I)c([N+](=O)[O-])c1", "note": "[Iniparib (BSI-201)]", "nuclei number (z-score)": "inactive: -1.58"}, {"smiles": "C#C[C@]1(O)CC[C@H]2[C@@H]3CCC4=CC(=O)CC[C@@H]4[C@H]3C(=C)C[C@@]21CC", "note": "[Etonogestrel]", "nuclei number (z-score)": "inactive: -0.0564"}, {"smiles": "CCOc1ccc2nc(S(N)(=O)=O)sc2c1", "note": "[Ethoxzolamide]", "nuclei number (z-score)": "inactive: 0.52"}, {"smiles": "c1coc(CNc2ncnc3[nH]cnc23)c1", "note": "[Kinetin]", "nuclei number (z-score)": "inactive: -0.103"}, {"smiles": "CS(=O)(=O)c1ccc(-c2nnc(/C=C/c3nnc(-c4ccc(C#N)cc4)o3)n2-c2ccccc2Cl)nc1", "nuclei number (z-score)": "inactive: 1.25"}, {"smiles": "C[C@]12CCC3=C4CCC(=O)C=C4CC[C@H]3[C@@H]1CC[C@@]2(O)CC#N", "note": "[Dienogest]", "nuclei number (z-score)": "inactive: 1.11"}, {"smiles": "C[C@@H]1C[C@H]2[C@@H]3CCC4=CC(=O)C=C[C@]4(C)[C@@]3(Cl)[C@@H](O)C[C@]2(C)[C@@]1(OC(=O)c1ccco1)C(=O)CCl", "note": "[Mometasone furoate]", "nuclei number (z-score)": "inactive: 0.915"}, {"smiles": "CCOC(=O)[C@H](CCc1ccccc1)N[C@@H](C)C(=O)N1C(=O)N(C)C[C@H]1C(=O)O", "note": "[Imidapril HCl]", "nuclei number (z-score)": "inactive: -0.205"}, {"smiles": "O=C(O)c1ccccc1O", "note": "[Salicylic acid]", "nuclei number (z-score)": "inactive: 0.0223"}, {"smiles": "COc1cc2ncnc(Nc3cccc(Cl)c3)c2cc1OC", "note": "[AG-1478 (Tyrphostin AG-1478)]", "nuclei number (z-score)": "inactive: 0.184"}, {"smiles": "Cc1[nH]nc(C(F)(F)F)c1Cc1sc2c(c1C(=O)N1C[C@](C)(O)CO1)c(=O)n(C)c(=O)n2C(C)C", "nuclei number (z-score)": "active: -4.49"}, {"smiles": "O=c1oc2cc(O)ccc2s1", "note": "[Tioxolone]", "nuclei number (z-score)": "inactive: 0.375"}, {"smiles": "Cc1ccccc1C(C(=O)NC1CCCCC1)N(C(=O)Cn1ccnc1C)c1cccc(F)c1", "note": "(stereo not given)", "nuclei number (z-score)": "inactive: -0.0338"}, {"smiles": "O=C(O)c1cc(=O)[nH]c(=O)[nH]1", "note": "[Orotic acid (6-Carboxyuracil)]", "nuclei number (z-score)": "inactive: -0.878"}, {"smiles": "O=c1n(CCCN2CCN(c3cccc(Cl)c3)CC2)nc2ccccn12", "note": "[Trazodone HCl]", "nuclei number (z-score)": "inactive: 0.295"}, {"smiles": "CC1(C)S[C@@H]2[C@H](NC(=O)[C@H](N)c3ccccc3)C(=O)N2[C@H]1C(=O)O", "note": "[Ampicillin sodium]", "nuclei number (z-score)": "inactive: 0.829"}, {"smiles": "CC1(C)S[C@@H]2[C@H](NC(=O)[C@H](N)c3ccccc3)C(=O)N2[C@H]1C(=O)O", "note": "[Ampicillin Trihydrate]", "nuclei number (z-score)": "inactive: -1.18"}]}]}
